According to publication PMC3961692, “Chemically Modified DNA Aptamers Bind Interleukin-6 with High Affinity and Inhibit Signaling by Blocking Its Interaction with Interleukin-6 Receptor” (The Journal of Biological Chemistry, 2014):

Target: T1, Soluble human IL-6 receptor (human, UniProt P08887 20-365)
T1 construct: Interleukin-6 receptor subunit alpha, human, soluble form; also called sIL-6Rα; soluble IL-6Rα; source: bought: Sigma (catalog no. I5771); expressed in Sf21 insect cells
T1 sequence (looked up): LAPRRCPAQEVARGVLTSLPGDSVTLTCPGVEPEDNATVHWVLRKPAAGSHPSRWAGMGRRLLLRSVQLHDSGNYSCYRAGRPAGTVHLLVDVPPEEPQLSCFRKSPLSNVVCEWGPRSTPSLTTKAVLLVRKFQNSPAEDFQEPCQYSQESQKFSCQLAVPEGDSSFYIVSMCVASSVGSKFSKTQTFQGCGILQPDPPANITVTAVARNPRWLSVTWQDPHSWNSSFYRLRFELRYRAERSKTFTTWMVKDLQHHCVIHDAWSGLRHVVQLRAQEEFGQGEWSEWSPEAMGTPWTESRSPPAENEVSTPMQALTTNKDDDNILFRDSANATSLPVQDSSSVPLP
Experiment: ELISA; soluble IL-6Rα coupled to a microtiter plate by passive adsorption; biotinylated IL-6 (50 ng/ml) in PBS with 1% BSA, 0.05% Tween 20, 5 mM MgCl2, 120 min at 25 °C; bound IL-6 detected with streptavidin horseradish peroxidase; with and without SOMAmer or tocilizumab as competitor
Conditions: both partners purified

binding result: binds
B1: Recombinant human IL-6, biotinylated (ligand)
chain: not shown
modifications: biotin (NHS-PEO4-biotin) coupled to lysine residues
notes: Interleukin-6, human, […]; recombinant, nonglycosylated; numbers count on: the mature protein; also called interleukin-6; biotinylated IL-6; source: bought: PeproTech (catalog no. 200-06); expressed in Escherichia coli, nonglycosylated; biotinylated with NHS-PEO4-biotin
